Source: US20050059584A1, “Novel chemokine mimetics synthesis and their use” (priority 2002, published 2005)
Positions of bridges follow the written chain, without caps; N, C: chain ends.

Experiments:
[1] = stability in human plasma (Table 3); format: in vitro ADME; conditions: 37° C
Experimental: This example illustrates the stability of SDF-1 chemokine analogs (as represented by Compound A (SEQ ID NO:809) and Compound B (SEQ ID NO:810)) in human plasma.
Fresh blood was collected into heparinized tubes and spun down at room temperature for 15 minutes at 1500 g, and the plasma was removed and placed in another tube. The plasma was then cooled to 4° C. by incubation on ice, and centrifuged for 15 minutes at 1500 g at 4° C. The plasma was recovered and used immediately and the leftover was frozen at −20° C.
Fractions of 0.5 ml of human plasma were aliquoted in eppendorf tubes and incubated in a heated bath at 37° C. A quantity of 200 μg of Compound B (SEQ ID NO:810) or Compound A (SEQ ID NO:809) in water (10 μg/μL in water) was added subsequently to each fraction and incubated for T=0, 5, 10, 20, 30, 60, 120, 240, 360 and 420 minutes. At the end of the incubation, the fractions were quenched by the addition of 0.20 ml 1M trifluoroacetic acid (TFA) and the tubes agitated gently and kept on ice for 10 minutes. The tubes were then diluted further with 200 μL of a 0.05% solution of TFA.
The samples were then centrifuged at 5000 rpm for 45 min at 4° C. The supernatants were extracted on solid phase.
Sep-pak C 18 cartridges (VWR #BJ9000, 100 mg, 1 ml, octadecyl column C18)) were preconditioned with 80% acetonitrile/0.1% TFA (5×1 ml) followed by TFA 0.05% (5×1 ml). The quenched (acidified) plasma samples were aspirated and applied to the column, and washed with 2×1 ml of TFA 0.05% (eluate discarded) followed by extraction with 5×1 ml of (80% acetonitrile/0.1% TFA). The samples were then frozen and lyophilized.
Dry residue was resuspended in 200 μL of (20% acetonitrile/0.1% TFA) and spun down in a centrifuge to clarify the sample by centrifugation at 5000 rpm for 15 minutes at 22° C. before loading 50 μL on HPLC.
HPLC analysis was performed on the Gilson using the following column, mobile phase, and detection systems.

[2] = test system: Primitive Erythroid bone marrow progenitor cells; test: 3H-thymidine killing of primitive erythroid bone marrow progenitor cells; format: cell-based, human; conditions: Table 5, no drug 47 +/− 4
white blood cells = test: growth of white blood cells in Ara-C treated mice compared to Neupogen (FIGS. 13, 14); format: in vivo, mouse (C3Hhen); conditions: twelve days following Ara-C
Experimental: C3Hhen mice (female) were treated with 500 mg/kg Ara-C for two cycles—on days 0 and 10. During the second cycle of Ara-C dosing, Ara-C treated mice were injected with 10 mg/kg Compound A (SEQ ID NO:809), 10 mg/kg Neupogen®, alone or together (on days—1, 0, and 1 to 3). Control represents animals treated with Ara-C alone. Blood was collected from the tail vein into heparin-containing tubes at the onset of the experiment, and one day before and 1, 7 and 12 days following the second Ara-C dose. A total white blood cell count was obtained. The results represent the mean ± one S.D. of 6 animals/group.
C3Hhen mice (female) were treated with 500 mg/kg Ara-C for two cycles—on days 0 and 10. During the second cycle of Ara-C dosing, Ara-C treated mice were injected with 10 mg/kg Compound A (SEQ ID NO:809) (defined in Examples), 10 mg/kg Neupogen®, alone or together (on days—1, 0, and 1 to 3). Control represents animals treated with Ara-C alone. […] The increase in leukocytes (white blood cells) was determined relative to the number of cells counted the day before the second cycle Ara-C dose was administered. […]
FIG. 14 depicts the results of an experiment conducted under identical conditions, but the growth (increase in leukocyte count) relative to the number of cells counted in animals treated with Ara-C alone is illustrated.

For “H2N-Lys-Pro-Val-Ser-Leu-Ser-Tyr-Arg-Cys-Pro-Cys-Arg-Phe-Phe-[Gly-Gly-Gly-Gly]-Leu-Lys-Trp-Ile-Gln-Glu-Tyr-Leu-Glu-Lys-Ala-Leu-Asn-NH2 (H-KPVSLSYRCPCRFFGGGGLKWIQEYLEKALN-NH2; lactam 20-24; cysteine pairing not given here) [Compound A]”, the “Percentage of compound remaining in plasma” value ([1]; 0 min) was 100%, the “Percentage of compound remaining in plasma” value ([1]; 5 min) was 32% and the “Percentage of compound remaining in plasma” value ([1]; 10 min) was 26%. The “Percentage of compound remaining in plasma” value ([1]; 20 min) was 21%, the “Percentage of compound remaining in plasma” value ([1]; 30 min) was 8% and the “Percentage of compound remaining in plasma” value ([1]; 60 min) was 9%. The “% CELL KILLED” value [2] was 5 +/− 3% and the “increase in leukocytes relative to Ara-C alone” value (white blood cells) was “approximately 7.5 fold”.
